Experimental data as given in PMC4336329 (PLoS ONE, 2015).
About 2,200 (0.71%) of roughly 310,000 compounds showed an effect of 50% or more. Effects have a minus sign here. The list shows a part of the results.

Biological target: human ether-à-go-go-related gene (hERG) potassium channel (human, UniProt Q12809)
Assay: primary screen, population patch clamp on CHO cells stably expressing hERG

Chain of human ether-à-go-go-related gene (hERG) potassium channel (Q12809 whole entry, looked up): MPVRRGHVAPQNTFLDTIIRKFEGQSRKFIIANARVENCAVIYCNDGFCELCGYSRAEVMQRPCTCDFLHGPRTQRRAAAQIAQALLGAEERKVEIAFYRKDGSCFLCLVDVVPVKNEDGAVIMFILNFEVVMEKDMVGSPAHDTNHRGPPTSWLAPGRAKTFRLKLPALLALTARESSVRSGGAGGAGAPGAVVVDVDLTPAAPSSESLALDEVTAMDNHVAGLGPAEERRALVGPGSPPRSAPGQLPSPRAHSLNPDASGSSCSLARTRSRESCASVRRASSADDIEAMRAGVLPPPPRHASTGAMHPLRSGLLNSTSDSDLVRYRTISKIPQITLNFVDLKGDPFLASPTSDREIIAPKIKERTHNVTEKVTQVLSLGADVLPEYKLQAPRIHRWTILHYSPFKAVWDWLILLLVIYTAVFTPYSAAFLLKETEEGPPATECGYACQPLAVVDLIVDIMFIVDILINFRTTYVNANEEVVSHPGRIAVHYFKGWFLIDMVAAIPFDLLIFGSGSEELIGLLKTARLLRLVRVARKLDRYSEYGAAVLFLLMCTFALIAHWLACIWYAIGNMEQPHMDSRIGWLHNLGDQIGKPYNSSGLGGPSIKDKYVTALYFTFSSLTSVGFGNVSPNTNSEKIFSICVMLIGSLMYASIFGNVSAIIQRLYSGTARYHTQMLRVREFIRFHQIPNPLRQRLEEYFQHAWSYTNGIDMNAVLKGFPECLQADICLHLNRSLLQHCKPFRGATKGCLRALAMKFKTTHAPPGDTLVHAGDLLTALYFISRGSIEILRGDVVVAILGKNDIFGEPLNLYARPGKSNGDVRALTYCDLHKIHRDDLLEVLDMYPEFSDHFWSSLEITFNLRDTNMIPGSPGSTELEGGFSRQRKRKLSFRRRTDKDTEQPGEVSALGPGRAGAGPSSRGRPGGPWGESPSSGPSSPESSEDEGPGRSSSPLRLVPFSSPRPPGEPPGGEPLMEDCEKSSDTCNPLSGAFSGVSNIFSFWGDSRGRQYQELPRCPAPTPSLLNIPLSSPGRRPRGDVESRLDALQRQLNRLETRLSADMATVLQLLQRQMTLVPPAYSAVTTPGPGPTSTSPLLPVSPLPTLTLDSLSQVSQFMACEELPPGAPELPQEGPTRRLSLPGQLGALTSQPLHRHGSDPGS

Row | SMILES | hERG current change (%, negative = inhibition) at 1uM [%]
1 | CCOC(=O)c1cc2sc(C)cc2n1C(C)C(=O)OCC (centres unmarked) | 2.66
2 | CCCn1c(SCC(=O)NC(C)(C)C)nnc1C(C)C | 8.04
3 | COCC(=O)Nc1cc(C)cn(Cc2ccccc2Cl)c1=O | 15.1
4 | O=[N+]([O-])c1cccc(/C=N/NC2=NS(=O)(=O)c3ccccc32)c1 | 14.2
5 | CC(C)OC(=O)c1cccc(NC(=O)CSc2nnc(N)s2)c1 | 4.13
6 | Cc1nc2ncccn2c1-c1csc(Nc2ccccc2)n1 | -7.85
7 | CCOC(=O)C1=C(c2ccccc2)OC(N)=C(C#N)C1C(C)C (centres unmarked) | -15.5
8 | COc1ccc(CCNC(=O)COC(=O)CSc2ccc([N+](=O)[O-])cc2)cc1OC | 4.89
9 | Cc1ccccc1NC(=O)CSc1cn[nH]n1 | 15.8
10 | Cc1ccc(-c2noc(CN3CCC(C(N)=O)CC3)n2)cc1 | 15.7
11 | COc1cc(/C=C/C(=O)OCC(=O)NC(=O)NC(C)C)ccc1OCC#N | 6.42
12 | COc1cccc(NC(=O)c2ccn(C)n2)c1 | 11.4
13 | COc1ccc(S(=O)(=O)N2CCC(C(=O)N3CCc4ccccc4C3)CC2)cc1OC | -8.72
14 | CCN(CC(=O)Nc1ccc2c(c1)OCCO2)C(=O)/C=C/c1ccccc1 | 17.1
15 | CCCc1ncc(C(O)c2ccccc2OC)n1C (centres unmarked) | 10.6
16 | O=C(N/C(=C/c1ccc(Cl)cc1)C(=O)N1CCCCC1)c1ccco1 | -0.117
17 | Nc1c(/C=C2\C=Nc3ccccc32)c(=O)nc2sc(CC(=O)N3CCOCC3)nn12 | 22.7
18 | C=CCN1C(=O)C2C(C(=O)NC3CCCC3)C3C=CC2(O3)C1C(=O)NC1CCCC1 (centres unmarked) | 20.5
19 | O=C(CSC1=NCCS1)Nc1ccc(S(=O)(=O)NC2CCCCC2)cc1 | 2.13
20 | CN(CC(=O)Nc1cccc(F)c1)C(=O)c1cc(S(=O)(=O)N2CCCCC2)ccc1N1CCOCC1 | 3.68
21 | Cc1cc(F)ccc1S(=O)(=O)N1CCCOC1CNC(=O)C(=O)NCc1cccnc1 (centres unmarked) | 12.6
22 | O=c1cc(COc2ncnc3ccccc23)nc2sccn12 | 0.661
23 | Cc1nc2cc(NC(=O)N(C)c3ccc4ccccc4c3)ccc2o1 | 11.4

Row | SMILES | hERG current change (%, negative = inhibition) at 1uM [%]
24 | CN(CC(=O)NCc1ccccn1)S(=O)(=O)c1ccc2ccccc2c1 | 3.54
25 | Cc1ccc2cc(CN(CCO)Cc3nnnn3Cc3ccc(F)cc3)c(=O)[nH]c2c1 | 4.89
26 | O=C(CC(=O)N/N=C\c1ccccc1[N+](=O)[O-])NCCc1ccccc1 | 13.2
27 | COc1ccc(Cl)cc1C(=O)OCC(=O)NCCNC(=O)COC(=O)c1cc(Cl)ccc1OC | -24.8
28 | CCCCC(=O)N/N=C/c1c(O)n(-c2ccccc2)c(=O)[nH]c1=O | 18.1
29 | Cc1cccc(Oc2ccc3c(c2)cc(C(=O)O)n3C)c1 | 7.28
30 | O=C(NCC(=O)N1CCC2(CC1)NCCc1[nH]cnc12)c1ccc2ccccc2c1 | 9.87
31 | CCN(CC)c1c([N+](=O)[O-])ncn1C | 3.02
32 | Cc1cccc(-n2c(C)cc(C(=S)N3CCOCC3)c2C)c1C | -3.05
33 | COC(=O)Nc1csc2c1NC(=O)CCCC2 | 14.9
34 | Cc1ccccc1N1CC(C(=O)Nc2nnc(SCC(=O)Nc3nccs3)s2)CC1=O (centres unmarked) | 7.82
35 | Cc1cc(N/N=C/c2ccc(O)cc2O)c2ccccc2n1 | 12.2
36 | COc1ccc(CCNc2ccc(C(CC(N)=O)NC(=O)Cc3ccc(Br)cc3)cc2[N+](=O)[O-])cc1 (centres unmarked) | 7.54
37 | CCOc1ccc2nc(-c3ccccc3)nc(SCC(=O)Nc3ncc(C)s3)c2c1 | 3.51
38 | CS(=O)(=O)NCc1nnc(SCc2c(F)cccc2Cl)o1 | -1.52
39 | Cc1noc(C)c1S(=O)(=O)Nc1ccc(C(=O)NCCc2ccccc2)cc1 | 7.23
40 | COc1ccc(N2CCN(C(=O)NCc3ccc(OC)c(Cl)c3)CC2)cc1 | 2.4
41 | Cc1ccc(N2C(=O)N(CC(=O)Nc3cc(C)cc(C)c3)C(=O)C2C)cc1 (centres unmarked) | 22.3
42 | COC(=O)c1ccc(COc2ccccc2/C=N/NC(N)=O)o1 | 11
43 | Cc1ccc(C2CC(=O)C=C(Nc3ccc(Cl)cc3)C2)cc1 (centres unmarked) | 10.4
44 | CN1CCN(S(=O)(=O)c2cccc(C(=O)O)c2)CC1 | 13.5
45 | CCN(CC(=O)Nc1ccc2c(c1)OCCO2)C(=O)CCc1ccccc1Cl | -1.51
46 | CN(C)c1ccc(/C=N/NC(N)=S)cc1[N+](=O)[O-] | 7.7

Row | SMILES | hERG current change (%, negative = inhibition) at 1uM [%]
47 | COc1ccc(-c2cc(-c3ccc(Cl)cc3)c(C#N)c(SCC(=O)O)n2)cc1 | 3.81
48 | CCc1nc(SCC(=O)N2CCCCC2)c2c(=O)n(C)c(=O)n(C)c2n1 | 3.91
49 | CCN(CC)c1ccc(-c2nn3c(-c4n[nH]c5c4CCC5)nnc3s2)cc1 | 9.19
50 | O=C(c1ccc(Br)o1)N1CCN(Cc2ccccc2Cl)CC1 | 13
51 | CC1(C)Cc2c(c(N3CCOCC3)nc3sc(C(=O)Nc4cccc(Cl)c4)c(N)c23)CO1 | 12.4
52 | Clc1cc(Br)ccc1OCCOCCOc1cccc2cccnc12 | 10
53 | COc1ccc(C2=NN(CC(=O)NCC(OC)OC)C(=O)CC2)cc1 | 4.65
54 | CC(=O)Nc1ccc(OCCOc2ccccc2C(C)=O)cc1 | 7.99
55 | Cc1[nH]c2ccccc2c1C(=O)C(=O)NCc1cccs1 | 2.73
56 | Nc1n[nH]c2ccccc12 | 14.4
57 | CN1CCN(C(=O)c2cc(COc3c(F)cccc3F)on2)CC1c1ccccc1 (centres unmarked) | -2.64
58 | Cc1cccc(NC(=O)CCN2C(=O)c3cccc([N+](=O)[O-])c3C2=O)c1 | 17.1
59 | Cc1ccc(C(=O)Nc2ccc(N3CCCC3)cc2)cc1 | 9.07
60 | C/C(=N\N1CCCCCC1)c1c(O)n(C)c(=O)n(C)c1=O | 12.3
61 | CC(Oc1ccc(/C=N/NC(=O)Cc2cccc3ccccc23)cc1)C(=O)O (centres unmarked) | -1.66
62 | COCCCNC(=O)Cc1coc2ccc3ccccc3c12 | 18.2
63 | CC(=O)NC1(c2ccccc2)CCN(Cc2nnnn2C(C)(C)C)CC1 | 10
64 | Cc1cc(C)nc(N2CCC(C(=O)NC3CCCCCC3)CC2)n1 | 0.0346
65 | C=CCNC(=S)NC(CC(=O)OC)c1ccc2c(c1)OCO2 (centres unmarked) | 8.6
66 | Cc1cccc(N2CCN(C3CCCCC3NS(=O)(=O)c3ccccc3)CC2C)c1 (centres unmarked) | 14.4
67 | CC(C)CC(OC(=O)c1cccs1)C(=O)NCc1cccs1 (centres unmarked) | 12.1
68 | CCN(CC)S(=O)(=O)c1cccc(NC(=S)NC(=O)/C=C/c2ccc(S(=O)(=O)N3CCOCC3)cc2)c1 | 5.39
69 | O=C(NNC1=NS(=O)(=O)c2ccccc21)c1ccccc1Cl | 12.1

Row | SMILES | hERG current change (%, negative = inhibition) at 1uM [%]
70 | CCN(CC)C(=O)N1CCn2c(nc3ccccc32)C1 | 9.48
71 | CCc1nnc(SCC(=O)Nc2ccc3c(c2)OCO3)n1CC | 9
72 | O=C(NCC1c2ccccc2CCN1C(=O)CN1C(=O)c2ccccc2C1=O)C1CCCCC1 (centres unmarked) | 7.49
73 | CCOC(=O)C1CCCN(C(=O)c2ccc(S(=O)(=O)Nc3ccccc3OC)cc2)C1 (centres unmarked) | 4.06
74 | Cc1ccnn1CCC(=O)N1CCCC(N2CCN(c3cccc(Cl)c3)CC2)C1 (centres unmarked) | -3.74
75 | COCCCNC(=O)C1CCC(CNS(=O)(=O)c2ccc(C)cc2)CC1 (centres unmarked) | 12.3
76 | CCCCC(NC(C)=O)c1nc2ccccc2n1CCCC (centres unmarked) | 14.5
77 | Cc1oc(-c2ccc(Cl)cc2)nc1CS(=O)CC(=O)NC1CCCCC1 (centres unmarked) | 13.3
78 | CCOC(=O)C1=C(CS(=O)(=O)c2ccccc2)NC(=O)NC1c1ccccc1OCC (centres unmarked) | 4.4
79 | Cc1cc(NC(=O)CCC(=O)N(c2ccccc2)C(C(=O)NC2CCCC2)c2ccccc2C)no1 (centres unmarked) | 4.32
80 | O=C(COC(=O)C12CC3CC(CC(O)(C3)C1)C2)NC12CC3CC(CC(C3)C1)C2 | 12
81 | Cc1cc(OCCN2CCCCCC2)ccc1[N+](=O)[O-].O=C(O)C(=O)O | -12.8
82 | Cc1ccc(NC(=O)CSc2ncccn2)c([N+](=O)[O-])c1 | 9.32
83 | COc1cccc(C(C(=O)NC2CCCC2)N(C(=O)CNC(=O)c2ccco2)c2cccnc2)c1 (centres unmarked) | 18.1
84 | OCC[C@H]1C[C@@H](O)[C@H](O)[C@]2(OCCCc3ccccc32)O1 | -13.8
85 | CCCc1nc(SCC(=O)c2ccc(OC)cc2)c2ccccc2n1 | 1.74
86 | COc1cccc(C(=O)OCC(=O)Nc2ccc(N3CCOCC3)cc2)c1 | 12.9
87 | N#Cc1ccc(-c2ccc(F)cc2)nc1Sc1ccccc1 | 13.7
88 | COc1ccc(NN=Nc2ccc([N+](=O)[O-])cc2)cc1 | 15.5
89 | c1cncc(CNc2cccc(-c3nc4ccccc4[nH]3)c2)c1 | 10.9
